Consider 6 substances from paper PMC8385403.

By UniProt entry, the sequences of proteins in these tests, tags left out. Where a name states a change or a piece, a line headed by the entry shows the natural chain unless it says otherwise.
UniProt P35580: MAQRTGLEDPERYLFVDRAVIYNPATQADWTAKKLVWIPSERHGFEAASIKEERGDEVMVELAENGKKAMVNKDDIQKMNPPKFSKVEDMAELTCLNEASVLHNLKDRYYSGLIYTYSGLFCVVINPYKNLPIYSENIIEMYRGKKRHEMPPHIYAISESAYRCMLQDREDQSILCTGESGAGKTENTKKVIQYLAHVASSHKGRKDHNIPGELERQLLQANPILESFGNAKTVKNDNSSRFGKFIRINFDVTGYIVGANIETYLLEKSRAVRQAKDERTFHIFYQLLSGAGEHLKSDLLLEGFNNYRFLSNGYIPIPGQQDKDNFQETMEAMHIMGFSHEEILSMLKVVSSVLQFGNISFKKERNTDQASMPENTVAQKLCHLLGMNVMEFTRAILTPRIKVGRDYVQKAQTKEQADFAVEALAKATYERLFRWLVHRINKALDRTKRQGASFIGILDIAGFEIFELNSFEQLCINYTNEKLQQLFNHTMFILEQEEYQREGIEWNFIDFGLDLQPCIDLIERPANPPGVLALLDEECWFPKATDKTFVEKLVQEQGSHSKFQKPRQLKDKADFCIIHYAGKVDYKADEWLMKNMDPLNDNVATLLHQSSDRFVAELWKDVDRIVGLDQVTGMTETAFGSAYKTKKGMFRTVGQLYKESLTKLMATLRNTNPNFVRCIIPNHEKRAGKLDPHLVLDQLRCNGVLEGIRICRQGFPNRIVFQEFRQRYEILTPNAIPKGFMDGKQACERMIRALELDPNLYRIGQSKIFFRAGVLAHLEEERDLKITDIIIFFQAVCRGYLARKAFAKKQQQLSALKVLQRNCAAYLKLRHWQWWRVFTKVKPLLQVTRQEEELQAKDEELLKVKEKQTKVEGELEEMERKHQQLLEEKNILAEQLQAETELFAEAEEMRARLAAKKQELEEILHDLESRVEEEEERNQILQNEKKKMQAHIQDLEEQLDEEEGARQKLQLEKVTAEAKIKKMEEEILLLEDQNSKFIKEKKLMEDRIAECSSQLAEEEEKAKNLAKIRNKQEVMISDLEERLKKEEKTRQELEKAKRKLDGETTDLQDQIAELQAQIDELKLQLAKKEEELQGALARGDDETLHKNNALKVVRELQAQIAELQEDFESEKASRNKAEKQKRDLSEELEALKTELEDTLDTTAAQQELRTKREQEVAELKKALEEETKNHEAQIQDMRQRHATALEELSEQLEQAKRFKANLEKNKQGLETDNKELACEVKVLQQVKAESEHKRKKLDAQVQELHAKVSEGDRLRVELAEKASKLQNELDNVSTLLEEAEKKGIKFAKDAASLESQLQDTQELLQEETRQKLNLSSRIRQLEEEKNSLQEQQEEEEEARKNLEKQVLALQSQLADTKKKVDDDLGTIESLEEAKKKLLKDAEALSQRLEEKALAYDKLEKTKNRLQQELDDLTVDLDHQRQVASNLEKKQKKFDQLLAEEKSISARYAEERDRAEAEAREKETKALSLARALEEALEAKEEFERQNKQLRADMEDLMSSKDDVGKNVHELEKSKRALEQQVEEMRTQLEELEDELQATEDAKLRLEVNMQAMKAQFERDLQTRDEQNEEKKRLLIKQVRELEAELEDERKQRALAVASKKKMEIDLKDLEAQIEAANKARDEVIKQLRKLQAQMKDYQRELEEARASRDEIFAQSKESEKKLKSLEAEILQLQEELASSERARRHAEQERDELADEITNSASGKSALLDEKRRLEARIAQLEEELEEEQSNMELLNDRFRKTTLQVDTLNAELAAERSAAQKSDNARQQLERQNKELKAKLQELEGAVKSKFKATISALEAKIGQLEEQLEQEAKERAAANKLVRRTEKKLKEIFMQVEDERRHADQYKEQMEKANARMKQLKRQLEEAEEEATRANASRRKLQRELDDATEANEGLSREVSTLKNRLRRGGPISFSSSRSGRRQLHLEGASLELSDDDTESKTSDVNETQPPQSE
UniProt O15392: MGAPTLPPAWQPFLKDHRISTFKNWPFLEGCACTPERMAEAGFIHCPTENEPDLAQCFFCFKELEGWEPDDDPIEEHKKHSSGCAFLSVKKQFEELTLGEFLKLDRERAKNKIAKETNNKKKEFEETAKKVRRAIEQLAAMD
UniProt Q96GD4: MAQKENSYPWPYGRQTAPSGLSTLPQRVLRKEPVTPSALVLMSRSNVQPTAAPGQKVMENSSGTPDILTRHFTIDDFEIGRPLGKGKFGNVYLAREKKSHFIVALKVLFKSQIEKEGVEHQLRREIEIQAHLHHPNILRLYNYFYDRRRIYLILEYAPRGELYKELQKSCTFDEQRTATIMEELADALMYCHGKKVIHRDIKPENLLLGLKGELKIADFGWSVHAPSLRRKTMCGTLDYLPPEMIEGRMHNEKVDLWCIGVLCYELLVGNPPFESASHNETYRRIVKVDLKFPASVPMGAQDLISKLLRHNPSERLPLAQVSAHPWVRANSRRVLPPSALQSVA

Experiment [1] has as its target nonmuscle myosin IIB (endogenous NMIIB heavy chain) (human (endogenous in HEK293T)) (UniProt P35580). The experiment in a line: co-IP; HEK293T cells cotransfected with GFP-Aurora-B and GFP-survivin or GFP-survivin^L6A/W10A; endogenous NMIIB precipitated with anti-NMIIB antibody; blot with anti-NMIIB and anti-GFP.
Experiment [2] has the same target. The experiment in a line: co-IP; HEK293T cells transfected with one GFP construct; endogenous NMIIB precipitated with anti-NMIIB antibody on protein A/G beads, 4 °C; extraction buffer 20 mM Tris-HCl pH 8.0, 225 mM NaCl, 0.5 mM EDTA, 1% NP-40, 5% glycerol, 1 mM DTT; blot with anti-NMIIB and anti-GFP; for GFP-Aurora-B also after 100 nM AZD1152-HQPA for 1 h (DMSO as control).

No constants are given. Whether binding was seen depends on the method and setting. Binding seen in cells or lysates may run through a third protein. Some entries that bind do so weakly or less than the wild type.

For “GFP-survivin^L6A/W10A (from UniProt O15392 1-142)”, the binding entry in experiment [1] was “no binding”.

For the substance “GFP-survivin (from UniProt O15392 1-142)”, the binding entry in experiment [1] and in experiment [2] was “binds” each time.

Turning to “GFP-survivin^T117A (from UniProt O15392 1-142)”, the binding entry in experiment [2] is on record as “binds”.

For “GFP-survivin^T117D (from UniProt O15392 1-142)”, in experiment [2], the binding result is recorded as “binds”.

“GFP-Aurora-B^K106R (from UniProt Q96GD4 1-344) (enzyme)”: the binding entry in experiment [2] is “binds”.

On to “GFP-Aurora-B (from UniProt Q96GD4 1-344) (enzyme)”, for which the binding result in experiment [1] and in experiment [2] was “binds” throughout.
